# Measured values as given in article PMC6919601, “Identification of Plasmodium dipeptidyl aminopeptidase allosteric inhibitors by high throughput screening” (PLoS ONE, 2019).
# Among all 110,000 compounds or so, about 230 (0.21%) showed an effect of 50% or more. Some of the results follow.
# Molecular target: DPAP1 (Plasmodium falciparum, UniProt Q8IIJ9)
# Assay: primary screen, percent inhibition; read by cleavage of a fluorogenic dipeptide substrate; higher = more effect of the substance
# Parameters: species or system P. falciparum D10 trophozoite lysates; single well
# 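Note: 30 min substrate incubation versus DMSO and 10 µM JCP410 controls.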
# Sequence of DPAP1 (Q8IIJ9 whole entry, looked up): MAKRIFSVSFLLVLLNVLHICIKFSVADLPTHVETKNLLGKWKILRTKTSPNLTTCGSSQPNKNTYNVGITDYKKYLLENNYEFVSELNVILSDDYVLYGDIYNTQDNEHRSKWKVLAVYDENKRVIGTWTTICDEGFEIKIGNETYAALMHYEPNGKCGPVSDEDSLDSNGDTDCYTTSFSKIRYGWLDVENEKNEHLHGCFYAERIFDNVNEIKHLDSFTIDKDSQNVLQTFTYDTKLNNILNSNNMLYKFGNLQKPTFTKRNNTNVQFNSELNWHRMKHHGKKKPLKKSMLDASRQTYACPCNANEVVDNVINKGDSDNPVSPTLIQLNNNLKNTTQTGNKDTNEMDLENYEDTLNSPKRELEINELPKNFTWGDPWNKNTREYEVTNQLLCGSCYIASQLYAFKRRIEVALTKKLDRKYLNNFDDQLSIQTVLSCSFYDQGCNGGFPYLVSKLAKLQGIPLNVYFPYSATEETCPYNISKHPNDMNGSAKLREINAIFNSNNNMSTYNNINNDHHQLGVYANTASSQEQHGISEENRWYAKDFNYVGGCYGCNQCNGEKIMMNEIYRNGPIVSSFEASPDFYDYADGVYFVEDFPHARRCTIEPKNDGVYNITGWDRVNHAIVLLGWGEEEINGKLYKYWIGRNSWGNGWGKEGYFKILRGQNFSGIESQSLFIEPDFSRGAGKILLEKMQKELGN
row,Compound,% Inhibition @ 10 uM [%]
1,COc1ccc(C2N(C(=O)N3CCOCC3)CCN2S(=O)(=O)c2ccc(C)cc2)cc1 (centres unmarked),-1.92
2,CC(=O)Nc1ccc2[nH]c(C(F)(F)F)nc2c1,-2.78
3,CCOC(=O)c1cnn(-c2cc(C)c3ccccc3n2)c1N,1.43
4,CCCn1nc(NS(C)(=O)=O)c2cc3cccc(C)c3nc21,1
5,O=C(c1cc2ccc3cccnc3c2[nH]1)N1CCN(c2ccccn2)CC1,0.886
6,CCOC(=O)c1cc2c(=O)n3ccccc3nc2n(C)/c1=N\C(=O)/C=C/c1ccccc1,-1.2
7,O=C(NC1(C(F)(F)F)C(=O)Nc2c1c(=O)[nH]c(=O)n2-c1ccccc1F)c1cccs1 (centres unmarked),4.75
8,O=C(Cn1nnc(-c2ccc3c(c2)OCO3)n1)NCCCN1CCOCC1,0.883
9,O=C(Cn1ncc2c3ccccc3nc-2c1O)Nc1cccnc1,-3.73
10,COc1cc2c(cc1OC)C(Nc1cc(C)ccc1C)=NC(C)(C)C2,-0.725
11,Cc1cc(NC(=O)c2cc(-c3ccco3)on2)nn1Cc1ccc(Cl)cc1,-10
12,Clc1cc(Cl)c2c(-c3ccccc3)n(-c3ccccc3)nc(-c3ccccc3)c1-2,0.757
13,COc1ccc(CCNC(=O)c2cccc3c2SCCC3=O)cc1OC,0.658
14,CCn1c2ccccc2c2cc(NC(=O)COC)ccc21,4.83
15,CCCCN(CCCNC(=O)Cn1ncc2ccsc2c1=O)Cc1ccccc1,0.44
16,COc1ccccc1C(=O)NCc1ccc(Cl)c(Cl)c1,1.83
17,CCOc1ccc(-c2csc(-c3nc(-c4ccc(OCC)cc4)cs3)n2)cc1,0.273
18,O=C(Cc1c[nH]c2ccccc12)NCCc1c[nH]c2ccc(OCc3ccccc3)cc12,6.48
19,NC(=O)C1CCN(C(=O)CCCc2nnc3n4nc(-c5ccccc5)nc4c4ccccc4n23)CC1,-4.69
20,O=S(=O)(c1ccc(-n2cnnn2)cc1)N1CCN(c2ncccn2)CC1,5.43
21,Cc1cc(C)c(S(=O)(=O)N2CCC(C(=O)O)CC2)c(C)c1,-3.08
22,COc1ccc(/C=C/C=C2C(=O)NC(=O)NC2=O)cc1,1
23,COc1ccc2c(=O)c(Oc3cc(C)cc(C)c3)coc2c1,6.08
24,COc1cc(/C=C2\C(=O)NC(=O)N(C)C2=O)cc(OC)c1OC,2.3
25,CNCCC1Sc2ccccc2Oc2ccccc21 (centres unmarked),0.24

row,Compound,% Inhibition @ 10 uM [%]
1,Cc1ccc(C2CC3=Nc4ccccc4N(C(=O)C4CC4)C(c4cccnc4)C3=C(O)C2)cc1 (centres unmarked),-3.77
2,NC(=O)C1CCN(CCc2ccccc2)CC1,-4.75
3,CN(Cc1ccc(F)c(F)c1)CC(O)c1ccccc1 (centres unmarked),0.472
4,CCOc1nc2c(c(=O)n(C)c(=O)n2C)n1Cc1cccc(F)c1,5.53
5,COc1ccc(Cl)cc1N(CC(=O)NCC1CCCO1)S(=O)(=O)c1ccc(C)cc1 (centres unmarked),7.93
6,CC1CCCC(C)N1C(=O)c1ccc(CNS(=O)(=O)c2cccc(C(F)(F)F)c2)cc1 (centres unmarked),4.31
7,CCC(C(=O)NCc1ccc(C)o1)n1nc(C)c2sc3ccccc3c2c1=O (centres unmarked),-1.75
8,Nc1nonc1Sc1nc2ccccc2[nH]1,-0.216
9,Cn1c(=O)c2c(nc3n(Cc4ccccn4)c(-c4ccc(Br)cc4)cn23)n(C)c1=O,2.38
10,CCOC(=O)C1CCN(c2cc(C)c3ccccc3n2)CC1,2.16
11,COc1cc(OC)c(OC)cc1/C=C1\N=C(c2cc(OC)c(OC)c(OC)c2)OC1=O,-12.5
12,COc1ccc(-c2nc3sc(-c4ccccc4)cc3c(=O)o2)cc1,1.75
13,COc1ccccc1N(CC(=O)N1CCN(C)CC1)S(C)(=O)=O,0.755
14,COc1ccc(OCCCCSC(C)C)cc1,-4.58
15,CC(NC(=O)C1CCN(C(=O)c2cc3sccc3n2C)CC1)c1ccc2c(c1)OCCO2 (centres unmarked),1.8
16,CC(C)C[C@H](NC(c1ccc(-c2ccc(S(C)(=O)=O)cc2)cc1)c1nccs1)C(=O)NC1(C#N)CC1 (some centres unmarked),-8.26
17,O=C(CCC1=Nc2ncc(Br)cc2S(=O)(=O)N1)N1CCOCC1,-3.64
18,CC(=C1C(=O)c2ccccc2C1=O)N1CCN(Cc2ccc3c(c2)OCO3)CC1,1.52
19,CC(C)OP(=O)(OC(C)C)C(Nc1ccc2ccccc2c1)c1ccccc1O (centres unmarked),7.11
20,CCc1nn(CC(=O)NCCCN(CC)CC)c(=O)c2cc3sccc3n12,3.4
21,O=C(NCCCc1ccccc1)C1CCN(c2cnccn2)CC1,-2.71
22,CCOC(=O)C1CCCN(Cc2sccc2C)C1 (centres unmarked),3.1
23,Cc1c(C(=O)NCCOC23CC4CC(C)(CC(C)(C4)C2)C3)sc2nc3n(c(=O)c12)CCCCC3,4.41
24,CC(=O)NS(=O)(=O)c1ccc(NC(=O)COc2ccc(C)cc2)cc1,-0.473
25,O=C(NCCc1c[nH]c2ccc(OCc3ccccc3)cc12)c1ccc([N+](=O)[O-])cc1,-3.81
